T1: Cyno TfR ECD Avi-His (cynomolgus macaque, UniProt Q5RDH6 89-760 (Pongo abelii entry), biotin on the Avi tag (BirA) where captured on streptavidin)
T1 construct: also called Cyno TfR Avi-His; cyno TfR Avi-His
T1 chain: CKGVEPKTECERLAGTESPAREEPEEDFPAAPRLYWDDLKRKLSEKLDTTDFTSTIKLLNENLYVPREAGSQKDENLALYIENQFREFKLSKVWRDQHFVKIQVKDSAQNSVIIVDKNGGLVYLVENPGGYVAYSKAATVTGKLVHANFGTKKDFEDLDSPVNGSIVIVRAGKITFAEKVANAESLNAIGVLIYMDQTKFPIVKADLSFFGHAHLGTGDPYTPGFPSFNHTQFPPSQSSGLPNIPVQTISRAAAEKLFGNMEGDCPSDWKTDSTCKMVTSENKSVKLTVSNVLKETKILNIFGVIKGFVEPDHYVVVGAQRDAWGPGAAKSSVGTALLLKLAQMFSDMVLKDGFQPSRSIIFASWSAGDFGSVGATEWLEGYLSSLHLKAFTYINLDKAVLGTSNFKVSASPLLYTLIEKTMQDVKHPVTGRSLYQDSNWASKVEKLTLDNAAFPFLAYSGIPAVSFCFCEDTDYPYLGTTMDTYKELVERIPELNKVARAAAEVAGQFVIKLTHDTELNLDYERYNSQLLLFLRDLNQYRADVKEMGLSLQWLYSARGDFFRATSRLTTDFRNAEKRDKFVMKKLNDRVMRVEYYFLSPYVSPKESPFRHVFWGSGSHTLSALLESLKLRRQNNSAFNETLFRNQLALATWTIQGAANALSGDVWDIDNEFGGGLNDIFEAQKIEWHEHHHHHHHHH

T2: huTfR Apical Domain-Avi-His (human, biotin on the Avi tag (BirA) where captured on streptavidin)
T2 construct: also called huTfR apical Avi-His; hTfR Apical
T2 chain: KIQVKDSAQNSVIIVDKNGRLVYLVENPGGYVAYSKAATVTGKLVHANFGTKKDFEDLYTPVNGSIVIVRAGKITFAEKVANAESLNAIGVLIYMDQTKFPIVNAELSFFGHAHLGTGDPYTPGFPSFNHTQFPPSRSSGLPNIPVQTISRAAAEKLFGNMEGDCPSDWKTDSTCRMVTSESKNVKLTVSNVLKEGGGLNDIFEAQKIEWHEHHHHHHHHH


How the values were obtained:
[1] = biological target: T3, Full length human TfR on CHO cells (human, UniProt P02786); assay: FACS MFI
T3 construct: also called CHO + huTfR; CHO + hTfR

[2] = biological target: T1, Cyno TfR ECD Avi-His; assay: ELISA OD450
[3] = biological target: T2, huTfR Apical Domain-Avi-His; assay: ELISA OD450
[4] = biological target: T4, Mouse TfR (muTfR) ECD Avi-His (mouse, UniProt Q62351, biotin on the Avi tag (BirA) where captured on streptavidin); assay: ELISA OD450
T4 construct: also called MuTfR Avi-His

T3 sequence (P02786 whole entry): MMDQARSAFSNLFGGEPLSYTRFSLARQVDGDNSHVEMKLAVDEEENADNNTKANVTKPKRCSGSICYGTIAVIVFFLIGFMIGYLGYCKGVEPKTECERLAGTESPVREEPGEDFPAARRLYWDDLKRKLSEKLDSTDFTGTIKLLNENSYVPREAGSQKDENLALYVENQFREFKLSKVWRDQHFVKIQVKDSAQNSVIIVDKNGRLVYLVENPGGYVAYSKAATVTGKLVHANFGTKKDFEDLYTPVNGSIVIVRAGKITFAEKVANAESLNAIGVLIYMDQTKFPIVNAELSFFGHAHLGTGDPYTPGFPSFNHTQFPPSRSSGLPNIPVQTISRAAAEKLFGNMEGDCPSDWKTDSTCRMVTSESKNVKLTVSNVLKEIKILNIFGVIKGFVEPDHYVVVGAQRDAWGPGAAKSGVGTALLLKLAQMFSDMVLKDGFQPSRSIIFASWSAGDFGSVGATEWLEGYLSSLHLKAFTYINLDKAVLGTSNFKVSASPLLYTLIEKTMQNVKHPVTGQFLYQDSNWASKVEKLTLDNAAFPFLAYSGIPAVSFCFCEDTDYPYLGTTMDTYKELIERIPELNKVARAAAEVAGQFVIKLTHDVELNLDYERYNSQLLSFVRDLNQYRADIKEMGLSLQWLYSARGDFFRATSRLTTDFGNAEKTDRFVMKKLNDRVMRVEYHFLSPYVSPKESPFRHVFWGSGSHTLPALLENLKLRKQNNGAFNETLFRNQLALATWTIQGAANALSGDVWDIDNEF

fold over CHO parental [1] [fold]	fold over isotype control [2] [fold]	fold over isotype control [3] [fold]	fold over isotype control [4] [fold]	Binder
777	1	39	1	TfR18 2+1 anti-TfR bispecific antibody (bispecific antibody, human IgG1, kappa, 2+1) heavy 1: EVRLLESGGGLVQPGGSLRLSCAASGFTFSNYAMGWVRQAPGKGLEWVSAISGSGGSTYYADSVKGRFTTSRDDSKNALYLQMNSLRAEDTAVYYCARGGPGWYAADVWGQGTTVTVSSASTKGPSVFPLAPSSKSTSGGTAALGCLVKDYFPEPVTVSWNSGALTSGVHTFPAVLQSSGLYSLSSVVTVPSSSLGTQTYICNVNHKPSNTKVDKKV[here human IgG1 Fc with changes without letters]GGGGSGGGGSGGGGSQVQLQQSGAELVRPGTSVKVSCKASGYAFTNYLIEWIKQRPGQGLEWIGVINPGNNDTTYNEMFKAKTTLTADKSSNTAYMQLSSLTSDDSAVYFCARRSPYFDYWGQGTTLTVSSGGSEGKSSGSGSESKSTGGSSIVMTQTPKFLLVSAGDRVTITCKASQSVSNDVAWYQQKPGQSPKLLIYYASNRYTGVPDRFTGSGYGTDFTFTISTVQAEDLAVYFCHQDYSSPTFGGGTKLEIK heavy 2: EVRLLESGGGLVQPGGSLRLSCAASGFTFSNYAMGWVRQAPGKGLEWVSAISGSGGSTYYADSVKGRFTTSRDDSKNALYLQMNSLRAEDTAVYYCARGGPGWYAADVWGQGTTVTVSS[here human IgG1 constant region with changes without letters] light: DIQMTQSPSSLSASVGDRVTITCRASQSISSYLNWYQQKPGKAPKLLIYAASSLQSGVPSRFSGSGSGTDFTLTISSLQPEDFATYYCQQADLPAFAFGGGTKVEIKRTVAAPSVFIFPPSDEQLKSGTASVVCLLNNFYPREAKVQWKVDNALQSGNSQESVTEQDSKDSTYSLSSTLTLSKADYEKHKVYACEVTHQGLSSPVTKSFNRGEC
293	1	32	1	TfR8 2+1 anti-TfR bispecific antibody (bispecific antibody, human IgG1, kappa, 2+1) heavy 1: EVRLLESGGGLVQPGGSLRLSCAASGFTFSNYAMGWVRQAPGKGLEWVSAISGSGGSTYYADSVKGRFTTSRDDSKNALYLQMNSLRAEDTAVYYCARGGPGWYAADVWGQGTTVTVSSASTKGPSVFPLAPSSKSTSGGTAALGCLVKDYFPEPVTVSWNSGALTSGVHTFPAVLQSSGLYSLSSVVTVPSSSLGTQTYICNVNHKPSNTKVDKKV[here human IgG1 Fc with changes without letters]GGGGSGGGGSGGGGSQVQLQQSGAELVRPGTSVKVSCKASGYAFTNYLIEWVKQRPGQGLEWIGVINPGSGGTNYNEKFKGKATLTADKSSSTAYMQLSSLTSDDSAVYFCARRSPYFDYWGQGTTLTVSSGGSEGKSSGSGSESKSTGGSSIVMTQTPKFLLVSAGDRVTITCKASQSVSNDVAWYQQKPGQSPKLLIYYASNRYTGVPDRFTGSGYGTDFTFTISTVQAEDLAVYFCHQDYISPTFGGGTKLEIK heavy 2: EVRLLESGGGLVQPGGSLRLSCAASGFTFSNYAMGWVRQAPGKGLEWVSAISGSGGSTYYADSVKGRFTTSRDDSKNALYLQMNSLRAEDTAVYYCARGGPGWYAADVWGQGTTVTVSS[here human IgG1 constant region with changes without letters] light: DIQMTQSPSSLSASVGDRVTITCRASQSISSYLNWYQQKPGKAPKLLIYAASSLQSGVPSRFSGSGSGTDFTLTISSLQPEDFATYYCQQADLPAFAFGGGTKVEIKRTVAAPSVFIFPPSDEQLKSGTASVVCLLNNFYPREAKVQWKVDNALQSGNSQESVTEQDSKDSTYSLSSTLTLSKADYEKHKVYACEVTHQGLSSPVTKSFNRGEC

More lines, now with the values behind:

Binder	fold over CHO parental [1] [fold]	fold over isotype control [2] [fold]	fold over isotype control [3] [fold]	fold over isotype control [4] [fold]
TfR2 2+1 anti-TfR bispecific antibody (bispecific antibody, human IgG1, kappa, 2+1) heavy 1: EVRLLESGGGLVQPGGSLRLSCAASGFTFSNYAMGWVRQAPGKGLEWVSAISGSGGSTYYADSVKGRFTTSRDDSKNALYLQMNSLRAEDTAVYYCARGGPGWYAADVWGQGTTVTVSSASTKGPSVFPLAPSSKSTSGGTAALGCLVKDYFPEPVTVSWNSGALTSGVHTFPAVLQSSGLYSLSSVVTVPSSSLGTQTYICNVNHKPSNTKVDKKV[here human IgG1 Fc with changes without letters]GGGGSGGGGSGGGGSEVQLQQSGPELVKPGASVKISCKASGYTFTDYNMHWVKQSHGKSLEWIGYIYPYNGGTGYNQKFKSKATLTVDNSSSTAYMELRSLTSEDSAVYYCATLYDGYYFDYWGQGTTLTVSSGGSEGKSSGSGSESKSTGGSDILLTQSPAILSVSPGERVSFSCRASQSIGTSIHWYQQRTNGSPRLLIKYASESISGIPSRFSGSGSGTDFTLSINNVESEDIADYYCQQSNSWPFTFGSGTKLEIK heavy 2: EVRLLESGGGLVQPGGSLRLSCAASGFTFSNYAMGWVRQAPGKGLEWVSAISGSGGSTYYADSVKGRFTTSRDDSKNALYLQMNSLRAEDTAVYYCARGGPGWYAADVWGQGTTVTVSS[here human IgG1 constant region with changes without letters] light: DIQMTQSPSSLSASVGDRVTITCRASQSISSYLNWYQQKPGKAPKLLIYAASSLQSGVPSRFSGSGSGTDFTLTISSLQPEDFATYYCQQADLPAFAFGGGTKVEIKRTVAAPSVFIFPPSDEQLKSGTASVVCLLNNFYPREAKVQWKVDNALQSGNSQESVTEQDSKDSTYSLSSTLTLSKADYEKHKVYACEVTHQGLSSPVTKSFNRGEC	1	1	1	1
TfR4 2+1 anti-TfR bispecific antibody (bispecific antibody, human IgG1, kappa, 2+1) heavy 1: EVRLLESGGGLVQPGGSLRLSCAASGFTFSNYAMGWVRQAPGKGLEWVSAISGSGGSTYYADSVKGRFTTSRDDSKNALYLQMNSLRAEDTAVYYCARGGPGWYAADVWGQGTTVTVSSASTKGPSVFPLAPSSKSTSGGTAALGCLVKDYFPEPVTVSWNSGALTSGVHTFPAVLQSSGLYSLSSVVTVPSSSLGTQTYICNVNHKPSNTKVDKKV[here human IgG1 Fc with changes without letters]GGGGSGGGGSGGGGSQVQLQQSGAELVRPGTSVKVSCKASGYAFTNYLIEWVKQRPGQGLEWIGVINPGSGGTTYNEKFKGKATLTADKSSSTAYMQLSGLTSDDSAVYFCARRSPYFDYWGQGTTLTVSSGGSEGKSSGSGSESKSTGGSSIVMTQTPKFLLVSAGDRVTITCKASQSVSNDVAWYQQKPGQSPKLLIYYASNRYTGVPDRFTGSGYGTDFTFTISTVQAEDLAVYFCHQDYISPTFGGGTKLEIK heavy 2: EVRLLESGGGLVQPGGSLRLSCAASGFTFSNYAMGWVRQAPGKGLEWVSAISGSGGSTYYADSVKGRFTTSRDDSKNALYLQMNSLRAEDTAVYYCARGGPGWYAADVWGQGTTVTVSS[here human IgG1 constant region with changes without letters] light: DIQMTQSPSSLSASVGDRVTITCRASQSISSYLNWYQQKPGKAPKLLIYAASSLQSGVPSRFSGSGSGTDFTLTISSLQPEDFATYYCQQADLPAFAFGGGTKVEIKRTVAAPSVFIFPPSDEQLKSGTASVVCLLNNFYPREAKVQWKVDNALQSGNSQESVTEQDSKDSTYSLSSTLTLSKADYEKHKVYACEVTHQGLSSPVTKSFNRGEC	305	1	40	1
TfR6 2+1 anti-TfR bispecific antibody (bispecific antibody, human IgG1, kappa, 2+1) heavy 1: EVRLLESGGGLVQPGGSLRLSCAASGFTFSNYAMGWVRQAPGKGLEWVSAISGSGGSTYYADSVKGRFTTSRDDSKNALYLQMNSLRAEDTAVYYCARGGPGWYAADVWGQGTTVTVSSASTKGPSVFPLAPSSKSTSGGTAALGCLVKDYFPEPVTVSWNSGALTSGVHTFPAVLQSSGLYSLSSVVTVPSSSLGTQTYICNVNHKPSNTKVDKKV[here human IgG1 Fc with changes without letters]GGGGSGGGGSGGGGSDVQLVESGGGLVQPGGSRKLSCAASGFTFSSFGMHWVRQAPEKGLEWVAYISSGSSAIYYADTVKGRFTVSRDNPKNTLFLQMTSLRSEDTAIYYCATSYVYDPPWFAYWGQGTLVTVSAGGSEGKSSGSGSESKSTGGSDIVMTQSHKFMSTSVGDRVSITCKASQDVSTAVAWYQQKPGQSPKLLIYWASTRPTGVPDRFTGSGSGTDYTLTISSVQAEDLALYSCQQHFSTPWTFGGGTKLEIK heavy 2: EVRLLESGGGLVQPGGSLRLSCAASGFTFSNYAMGWVRQAPGKGLEWVSAISGSGGSTYYADSVKGRFTTSRDDSKNALYLQMNSLRAEDTAVYYCARGGPGWYAADVWGQGTTVTVSS[here human IgG1 constant region with changes without letters] light: DIQMTQSPSSLSASVGDRVTITCRASQSISSYLNWYQQKPGKAPKLLIYAASSLQSGVPSRFSGSGSGTDFTLTISSLQPEDFATYYCQQADLPAFAFGGGTKVEIKRTVAAPSVFIFPPSDEQLKSGTASVVCLLNNFYPREAKVQWKVDNALQSGNSQESVTEQDSKDSTYSLSSTLTLSKADYEKHKVYACEVTHQGLSSPVTKSFNRGEC	19	21	1	1
